Consider 86 compounds from PMC4336329 (PLoS ONE, 2015).

Structures are written as SMILES. Among all 310,000 compounds or so, about 2,200 (0.71%) showed an effect of 50% or more. Effects have a minus sign here. The list shows a part of the results.

The target of this experiment is human ether-à-go-go-related gene (hERG) potassium channel (human, UniProt Q12809). As to the kind of experiment: primary screen, population patch clamp on CHO cells stably expressing hERG.
Sequence of human ether-à-go-go-related gene (hERG) potassium channel (Q12809 whole entry, looked up): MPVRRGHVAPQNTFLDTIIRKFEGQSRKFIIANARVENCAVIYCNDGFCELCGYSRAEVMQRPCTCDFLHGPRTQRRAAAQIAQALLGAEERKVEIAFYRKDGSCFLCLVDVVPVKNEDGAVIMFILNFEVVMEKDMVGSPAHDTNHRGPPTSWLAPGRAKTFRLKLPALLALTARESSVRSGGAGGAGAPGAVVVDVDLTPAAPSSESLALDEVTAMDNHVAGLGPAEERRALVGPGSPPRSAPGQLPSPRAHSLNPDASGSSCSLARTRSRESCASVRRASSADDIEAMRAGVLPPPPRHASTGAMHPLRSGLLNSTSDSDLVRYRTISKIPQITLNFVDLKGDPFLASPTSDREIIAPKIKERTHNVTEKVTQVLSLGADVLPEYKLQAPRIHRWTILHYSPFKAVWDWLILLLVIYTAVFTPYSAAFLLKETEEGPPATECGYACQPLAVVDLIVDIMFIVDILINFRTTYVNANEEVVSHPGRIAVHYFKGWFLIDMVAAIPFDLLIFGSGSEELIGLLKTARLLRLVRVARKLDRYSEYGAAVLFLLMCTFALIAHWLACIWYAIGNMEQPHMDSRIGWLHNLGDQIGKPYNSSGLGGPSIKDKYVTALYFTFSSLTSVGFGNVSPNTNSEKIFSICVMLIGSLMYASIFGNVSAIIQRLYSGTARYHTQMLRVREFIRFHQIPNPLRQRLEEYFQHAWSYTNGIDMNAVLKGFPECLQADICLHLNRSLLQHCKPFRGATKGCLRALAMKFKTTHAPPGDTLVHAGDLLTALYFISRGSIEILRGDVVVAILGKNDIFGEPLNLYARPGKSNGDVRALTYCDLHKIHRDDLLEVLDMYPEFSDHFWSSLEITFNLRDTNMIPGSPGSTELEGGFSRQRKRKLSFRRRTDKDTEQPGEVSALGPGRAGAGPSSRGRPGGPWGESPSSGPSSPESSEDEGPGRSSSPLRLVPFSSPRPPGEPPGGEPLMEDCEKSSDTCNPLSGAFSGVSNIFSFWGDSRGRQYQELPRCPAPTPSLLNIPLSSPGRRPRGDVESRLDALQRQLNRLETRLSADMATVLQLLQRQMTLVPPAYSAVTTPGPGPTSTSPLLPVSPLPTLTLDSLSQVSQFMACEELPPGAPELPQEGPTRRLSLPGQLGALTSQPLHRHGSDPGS
With `COc1ccc(N=C(C)c2sc3ccccc3c2O)cc1`, the “hERG current change (%, negative = inhibition) at 1uM” value was determined as 3.02%.
As for `COCCNC(=O)c1cnn2c1NC(c1ccco1)CC2C(F)(F)F` (centres unmarked), the figure is 1.98%; as for `CC1CCCCN1CCNS(=O)(=O)c1ccc2c(c1)oc(=O)n2C` (centres unmarked), 16.3%; as for `CCNC(=O)CC1C(=O)N(c2ccc(C)cc2)C(=O)N1CCc1ccc(OC)c(OC)c1` (centres unmarked), 0.691%.
As for `Oc1ccc(/C=N/Nc2ccccc2)cc1`, the figure is 6.97%.
As for `COc1ccc(CNC(=O)CSc2n[nH]c(N)n2)cc1`, the figure is 14.9%; as for `CCOc1ccccc1Nc1nc(N)nc(CN(C)C2CCCCC2)n1`, -54.3%.
For the compound `Cc1cc(C(F)(F)F)n2[nH]c(=O)c(N=Nc3ccccc3)c2n1`, the “hERG current change (%, negative = inhibition) at 1uM” value worked out at 18.6%.
As for `C[C@@H]1CC[C@]2(C(=O)O)CC[C@]3(C)C(=CCC4[C@]56CC[C@@](O)(OC5)C(C)(C)C6CC[C@]43C)C2[C@H]1C` (some centres unmarked), the figure is 8.88%.
As for `CCOC(=O)NC(=O)COC(=O)CCCSc1nc2ccccc2s1`, the figure is -0.161%; as for `CN(CC(=O)Nc1ccc(Cl)cc1)C(=O)CCc1c[nH]c2ccccc12`, 0.427%.
As for `CCOC(=O)c1c(C)[nH]c(C(=O)Nc2cc(OCC)c(N3CCOCC3)cc2OCC)c1C`, the figure is 8.3%.
`CC1CCN(C2=NC(=O)/C(=C/c3cccc(O)c3)S2)CC1`: the “hERG current change (%, negative = inhibition) at 1uM” value is given as -0.755%.
For `COc1ccc(CCNC(=O)COC(=O)C2COc3ccccc3O2)cc1` (centres unmarked) the value was 5.78%.
With `CNC(=O)NC(=O)CSc1nnc(-c2ccc(F)cc2)n1CC1CCCO1` (centres unmarked), the “hERG current change (%, negative = inhibition) at 1uM” value is on record as 12.3%.
For `CN(C)CCCNC(=O)c1cc(S(=O)(=O)N2CCOCC2)ccc1F` the value was -0.641%; for `CCN1CCN(C2=C(NS(=O)(=O)c3ccc(C)cc3)C(=O)c3ccccc3C2=O)CC1`, -28.3%.
For `Cc1cc(C)c(OCC(=O)OCC(=O)NCCC2=CCCCC2)c(C)c1` the value was 11.7%; for `CCN1C(=O)[C@H]2[C@@H](c3ccc(-c4ccc(OC)cc4)cc3)N[C@@](C)(C(=O)OC)[C@H]2C1=O.O=C(O)C(F)(F)F`, 8.99%; for `COc1ccc(-c2noc(Cc3cccs3)n2)cc1`, 8.43%.
With `COc1ccc(/C=N/NC(=O)c2cc(OC)c(OC)c(OC)c2)cc1CN1CCc2cc(OC)c(OC)cc2C1C` (centres unmarked), the “hERG current change (%, negative = inhibition) at 1uM” value is reported as -21.9%.
As for `c1ccc(CNc2nc(-c3cccnc3)nc3ccccc23)cc1`, the figure is 6.74%; as for `Cc1cc(OCC(=O)OCC(=O)c2c(N)n(C)c(=O)n(C)c2=O)ccc1Cl`, 2.89%; as for `Cc1cccc(C)c1NC(=O)CS(=O)CC(=O)N1CCN(c2ccccc2)CC1` (centres unmarked), 18.8%.
Consider `CCOC(=O)CNC(=O)c1cc2c(=O)[nH]c3ccc(C)cc3c2s1`, for which the “hERG current change (%, negative = inhibition) at 1uM” value was found to be 11.1%.
Regarding `CN(C)/C=N/C(=S)Nc1cc(Cl)cc(Cl)c1`, the “hERG current change (%, negative = inhibition) at 1uM” value stood at 13.8%.
For `C/C(=N\O)C(=O)NCCCn1ccnc1` the value was 11.3%; for `COc1ccc(CCNC(=O)CCCCn2c(=O)[nH]c3ccccc3c2=O)cc1OC`, 12.8%; for `O/N=C\c1ccc(-c2ccccc2)o1`, 0.81%.
As for `O=C(C1CCC(Cn2c(=S)[nH]c3ccccc3c2=O)CC1)N1CCN(c2ccccc2)CC1` (centres unmarked), the figure is 18%; as for `CN(CC(=O)Nc1cc([N+](=O)[O-])ccc1Cl)Cc1ccc(Br)cc1`, 3.97%; as for `CCCCCCCCCCCCC/C=C/[C@@H](O)[C@@H](N)CO`, 19.2%.
For `Cc1ccccc1CS(=O)(=O)Cc1ccc(C(=O)N2CCC3(CC2)OCCO3)o1` the value was 14.6%; for `O=C(Cc1cccs1)Nc1nc2c(s1)CCCC2`, -1.28%.
Turning to `Cc1ccc(C)c(NC(=O)c2ccc(N(C)S(C)(=O)=O)cc2)c1`, the “hERG current change (%, negative = inhibition) at 1uM” value was -3.76%.
For `C=C1CCN([C@@H](C)C(=O)OCc2ccc(C)cc2)S(=O)(=O)c2ccccc21` the value was 4.15%.
As for `Clc1ccc(-n2cccc2)cn1`, the figure is 14.8%.
As for `CCO[C@H]1OC(C(=O)N2CCN(Cc3ccc4c(c3)OCO4)CC2)=C[C@@H](c2ccc(C(F)(F)F)cc2)[C@@H]1CCCO`, the “hERG current change (%, negative = inhibition) at 1uM” value is -2.19%.
Turning to `CCOc1ccc(/C(O)=C2/C(=O)C(=O)N(CCOCCO)C2c2ccccn2)cc1` (centres unmarked), the “hERG current change (%, negative = inhibition) at 1uM” value was -1.13%.
As to `Cc1nn2c(-c3ccc(Cl)cc3)nnc2s1`, the “hERG current change (%, negative = inhibition) at 1uM” value is listed as -4.67%.
As for `C=CCn1c(=O)c2c(nc(-n3nc(C)cc3C)n2C)n(C)c1=O`, the “hERG current change (%, negative = inhibition) at 1uM” value worked out at 30.1%.
Regarding `O=C1CC(c2ccccc2)CC(O)=C1C=NCc1ccco1` (centres unmarked), the “hERG current change (%, negative = inhibition) at 1uM” value was -1.79%.
As for `Cc1nc(NC(=O)CSc2nc3cccnc3n2C2CCCCC2)sc1C`, the figure is 9.77%; as for `Cc1ccc(S(=O)(=O)N(C)C)cc1NC(=O)CCc1ccccc1`, -1.49%; as for `Cc1cc(C)cc(NC(=S)N2CCN(c3ccccn3)CC2)c1`, 6.92%.
For `COc1ccc(CNC(=O)C2CCCN2S(=O)(=O)c2ccc(C)cc2)cc1` (centres unmarked) the value was 0.173%; for `O=C(COC(=O)c1ccc2ccccc2c1O)NCc1ccccc1`, 10.9%.
As for `Cc1ccc2nc(NC(=O)CCCC(=O)O)sc2c1`, the figure is 13.2%; as for `COc1ccc2[nH]c3c(c2c1)CCN1C(=O)N([C@@H](C)C(=O)NCCc2ccc(OC)c(OC)c2)C(=O)[C@]31C`, -3.9%.
Consider `Cl.Oc1cccc(C(O)CNCc2ccc(-c3ccccc3)cc2)c1` (centres unmarked), for which the “hERG current change (%, negative = inhibition) at 1uM” value was -11.4%.
As for `O=C1c2ccccc2C2(c3ccc(F)cc3)NCCN12` (centres unmarked), the figure is 8.5%; as for `CN(c1ccc(C(=O)NCc2cccnc2)cc1)S(C)(=O)=O`, 3.33%.
Turning to `Cc1ccnc(NC(=O)COC(=O)c2ccc(F)cc2F)n1`, the “hERG current change (%, negative = inhibition) at 1uM” value is reported as 17.2%.
As for `Cc1cccnc1NC(=O)CSc1ncnc2sc(C)c(C)c12`, the figure is 13.8%; as for `Cc1ccc(S(=O)(=O)n2nc(-n3c(C)ccc3C)c3c(F)cccc32)c2ccccc12`, 12.6%.
As for `COc1cc(/C=C/C(=O)OCC(=O)NCCN2C(=O)CSC2=O)ccc1OC(F)F`, the figure is 3.09%; as for `Cc1ccc(OCC(=O)NNC(=O)CSc2nnc(-c3ccc(C)cc3)n2C)cc1`, 7.24%; as for `Cc1ccc(NCc2nnc(SCC(=O)Nc3cccc(O)c3)n2CC2CCCO2)c(C)c1` (centres unmarked), -36.5%.
For `COc1ccc(OC)c(S(=O)(=O)NC2CC(=O)N(c3ccc(C)c(C)c3)C2)c1` (centres unmarked) the value was 1.52%; for `CCCCn1c(N)c(N(CC(C)C)C(=O)C2CCC2)c(=O)[nH]c1=O`, 4.79%.
`CCCCn1c(C)nc2c(=O)n(C)c(=O)[nH]c21`: the “hERG current change (%, negative = inhibition) at 1uM” value is on record as 8.72%.
For `COc1ccc(NC(=O)c2cncc(Br)c2)cc1S(N)(=O)=O` the value was 1.84%; for `O=C(NCCCN1CCOCC1)c1ccccc1NS(=O)(=O)c1ccc(Br)cc1`, -7.95%.
Regarding `Cc1nn(-c2ccccc2)c(C)c1NC(=O)COC(=O)c1ccc(Cl)c(N)c1`, the “hERG current change (%, negative = inhibition) at 1uM” value is listed as -2.92%.
In the case of `CN1CCN(Cc2nc3c(c(=O)n(C)c(=O)n3C)n2CCCc2ccccc2)CC1`, the “hERG current change (%, negative = inhibition) at 1uM” value was found to be 5.38%.
For `Cc1ccc(NC(=O)CN(c2ccc(C)cc2)S(=O)(=O)c2cccc3nonc23)cc1`, the “hERG current change (%, negative = inhibition) at 1uM” value amounted to 1.85%.
As for `O=C1C2C(c3ccccc3)(C(=O)N1c1ccc(Cl)cc1)C2(c1ccccc1)c1ccccc1` (centres unmarked), the figure is 0.463%; as for `COc1cc2c(cc1O)CCN(C(=O)c1ccco1)C2C` (centres unmarked), 0.438%; as for `COc1ccccc1N1CCN(S(C)(=O)=O)CC1`, 5.25%.
As for `Cc1cccc(C(=O)O/N=C(\N)Cc2cccc3ccccc23)c1`, the figure is 10%.
For `CCCCn1c(=N)n(CC(O)c2ccccc2)c2ccccc21.Cl` (centres unmarked) the value was -36.7%.
With `Cc1ccccc1NS(=O)(=O)c1cc(C(=O)NCc2ccncc2)ccc1Cl`, the “hERG current change (%, negative = inhibition) at 1uM” value is listed as -10.1%.
Regarding `CCc1cccc(NC(=O)Cn2c(=O)c3cccn3c3ccccc32)c1`, the “hERG current change (%, negative = inhibition) at 1uM” value is on record as 11.5%.
For `CCOC(=O)NC(=O)C(=CNc1cccc(C)c1)C(=O)NC(=O)OCC` the value was 9.86%; for `Cc1ccc(CN2CCN(Cc3cnn(-c4ccc(Cl)cc4)c3)CC2CCO)o1` (centres unmarked), -12.6%.
As for `O=C(O)c1ccccc1NC(=O)C1C2C=CC(C2)C1C(=O)O` (centres unmarked), the figure is 14.2%; as for `Cc1ccccc1CNC(=O)C(=O)NCC1CCCN1S(=O)(=O)c1ccccc1` (centres unmarked), 2.85%; as for `COc1ccc(C2=NCC(CSc3nnnn3C)S2)cc1` (centres unmarked), 5.15%.
As for `O=C(c1ccc2c(c1)OCO2)C1CCCN(Cc2ccc(OC(F)F)cc2)C1` (centres unmarked), the figure is -53%; as for `COc1ccc(NC(=O)CCc2nnc3ccc(N4CCN(c5cccc(OC)c5)CC4)nn23)cc1`, 12.5%; as for `CCOC(=O)C1=C(COC(=O)/C=C/c2cc(OC)c(OC)c(OC)c2)NC(=O)NC1C` (centres unmarked), 15.6%.
In the case of `CCOC(=O)c1[nH]c2ccc(F)cc2c1NC(=O)CCN1CCSCC1`, the “hERG current change (%, negative = inhibition) at 1uM” value was determined as 7.87%.
For `COc1ccc(S(=O)(=O)N2CCCCCC2)cc1NC(=O)c1ccccc1S(C)(=O)=O` the value was -3.5%.
For `COc1ccc(C(=O)NN/C(=N/S(=O)(=O)c2ccc(C)cc2)c2ccccc2)cc1` the value was 1.4%; for `COc1ccc(OC)c(/C=N/NC(=O)CCN2CCN(C(c3ccccc3)c3ccccc3)CC2)c1`, 11.3%.
For the compound `O=S(=O)(/C=C/c1ccccc1)N1CCN(Cc2ccc3c(c2)OCO3)CC1`, the “hERG current change (%, negative = inhibition) at 1uM” value was -2.01%.
